# Reference: US11021541B2, “Method of inhibiting the gonadotropin-releasing hormone (GnRH) receptor by administering a GHR-106 monoclonal antibody” (Vancouver Biotech Ltd., priority 2018, dated 2021)
# Legend:
# [1] = tested on: OC-3-VGH, PC-3, A549 and MDA-MB-435 cancer cells; assay: TUNEL apoptosis assay of cultured and treated cancer cells; type: cell-based; settings: co-incubation 24 to 72 hours, compared on a molar basis, FIGS. 2A and 2B
# Procedure: In order to compare the anti-proliferative effects (or apoptosis) between mGHR106 or hGHR106 and antide on cancer cells, In Situ Cell Death Detection Kit, POD (Roche, Canada) was employed for detection and quantitation of apoptosis of cultured and treated cancer cells in vitro. Briefly cancer cells were cultured in RPMI-1640 medium at 37° C. in a CO2 (5%) incubator for 24 and/or 48 hours until all cancer cells are attached to microwells. Following removal of cell culture medium, fresh serum-free medium was added for an additional 3 hours incubation in a CO2 incubator.
# After the serum-free starvation period, the cells were incubated in fresh medium containing 10% fetal calf serum, and hGHR106, mGHR106 or antide of known concentration was added for co-incubation of 24 to 72 hours. As the negative control, normal mouse IgG or normal human IgG of the same concentration was used for the same incubation period.
# At the end of incubation, the attached cells were removed from tissue culture wells by appropriate cell detachment solution. Apoptosis of treated cancer cells was quantitatively determined by TUNEL assay with the instructions provided by Cell Death Detection Kit, POD (Roche, Canada). Percent increases of cells with apoptosis after treatments with any one of hGHR106, mGHR106 and antide were obtained by subtracting spontaneous apoptosis from the negative control. […]
# OC-3-VGH cancer cells = assay: Comparative gene regulation study in cancer cells; type: cell-based, human; settings: FIG. 4; upon ligand treatment of cancer cells
# Excerpt: Comparative gene regulation upon administration of hGHR106 or the decapeptide GnRH analog antide was examined using conventional protocols, e.g. as described in U.S. Pat. No. 8,361,793. […] Expressions of a number of selected genes involved in the proliferation or survival of cancer cells were compared. The selected genes include: GnRH, GnRHR, P0, P1, P2, L37, and EGF, c-fos, P21 and cyclin D1. P0, P1, P2, and L37 are ribosomal proteins.
molecule,measurement,setting,value
hGHR-106: humanized GHR-106 monoclonal antibody against the GnRH receptor (antibody) heavy: QVQLQESGPGLVKPSETLSLTCTVSGFSLSRYSVHWIRQPPGKGLEWIGMIWGGGSTDYNPSLKSRVTISKDNSKSQVFLKMSSVTAADTAMYYCARGNDGYYSFAYWGQGTLVTVSSASTKGPSVFPLAPCSRSTSESTAALGCLVKDYFPEPVTVSWNSGALTSGVHTFPAVLQSSGLYSLSSVVTVPSSSLGTKTYTCNVDHKPSNTKVDKRV[human IgG4 Fc with S228P (EU numbers) skipped] light: DIVMTQSPDSLAVSLGERATINCKSSQSLLNSRTRKNYLAWYQQKPGQSPKLLIYWASTRESGVPDRFSGSGSGTDFTLTISSLQAEDVAVYYCKQSYNLYTFGQGTKLEIKRTVAAPSVFIFPPSDEQLKSGTASVVCLLNNFYPREAKVQWKVDNALQSGNSQESVTEQDSKDSTYSLSSTLTLSKADYEKHKVYACEVTHQGLSSPVTKSFNRGEC,induced apoptosis (percent increase of cells with apoptosis),[1],very similar degrees of induced apoptosis
same,Cyclin D1 expression,OC-3-VGH cancer cells,downregulated
same,EGF expression,OC-3-VGH cancer cells,downregulated
same,GnRH expression (up-regulation),OC-3-VGH cancer cells,50%
same,expression of the GnRH receptor (GnRHR),OC-3-VGH cancer cells,unchanged
